Data: PubChem BioAssay AID360 (National Center for Advancing Translational Sciences (NCATS), 2006)
Screen size: about 48,000 compounds; about 550 (1.1%) were called active. Roughly 4% stayed inconclusive and do not appear here. Rule as the data show it: active = potency below about 15 µM; inconclusive = mostly about 16 µM to 33 µM; inactive = weaker than that. The list shows a part of the results.

Biological target: Lysosomal acid glucosylceramidase (Homo sapiens) (UniProt P04062)
Experiment: Glucocerebrosidase;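 also: the screen sought inhibitors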
Conditions: purified enzyme, resorufin glucoside fluorescence (screen aimed at inhibitors), 20 min
In short: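 Compounds titrated against 0.2 nM normal enzyme, 30 uM resorufin beta-D-glucopyranoside substrate, citrate/phosphate buffer with taurocholate and tween-20, pH 5.9. Reaction ran 20 min at room temperature; fluorescence (Ex 548/Em 600) gave AC50.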
Potency is read from the fitted curve at half-maximal effect.

Chain of UniProt P04062 (P04062 whole entry, looked up): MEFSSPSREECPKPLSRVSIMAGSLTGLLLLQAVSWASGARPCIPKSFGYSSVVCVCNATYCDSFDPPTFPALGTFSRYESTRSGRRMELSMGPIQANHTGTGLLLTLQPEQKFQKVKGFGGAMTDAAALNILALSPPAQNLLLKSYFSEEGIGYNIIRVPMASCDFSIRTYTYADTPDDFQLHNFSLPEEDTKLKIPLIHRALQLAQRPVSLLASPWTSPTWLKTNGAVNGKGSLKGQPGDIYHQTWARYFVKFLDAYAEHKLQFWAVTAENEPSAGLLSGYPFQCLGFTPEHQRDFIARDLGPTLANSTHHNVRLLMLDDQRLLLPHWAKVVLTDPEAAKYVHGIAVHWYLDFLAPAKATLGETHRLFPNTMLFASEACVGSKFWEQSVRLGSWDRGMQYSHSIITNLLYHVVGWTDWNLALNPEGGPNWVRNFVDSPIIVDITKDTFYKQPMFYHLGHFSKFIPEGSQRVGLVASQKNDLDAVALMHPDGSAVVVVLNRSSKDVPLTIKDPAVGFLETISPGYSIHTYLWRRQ

Potency, inactive:
CCc1c(O)nc(SCC(N)=O)n(-c2ccccc2F)c1=O > 76.9 µM
Cc1ccc(S(=O)(=O)N2CCC(C(=O)N3CCC[C@H]3C(=O)NCc3ccco3)CC2)cc1 > 76.9 µM
c1ccc(CCNc2c3c(nc4ncnn24)CCC3)cc1 > 76.9 µM
Cc1ccc(-c2nnc(N(C)C(=O)C3CCCO3)s2)cn1 (centres undefined) > 76.9 µM
COc1ccc(C2CC(=O)c3cnc(N)nc3C2)c(OC)c1 (centres undefined) > 76.9 µM
Cc1ccc2oc3c(c(=O)c2c1)C(c1cccc(Br)c1)N(Cc1ccco1)C3=O (centres undefined) > 76.9 µM
N#C/C(=C\Nc1ccc2c(c1)OCCO2)c1nc2ccccc2[nH]1 > 76.9 µM
O=C(O)C1CCCCC1C(=O)Nc1ccc(Cl)cc1 (centres undefined) > 76.9 µM
O=C(NC1CCCCCC1)c1cc(S(=O)(=O)N2CCOCC2)ccc1N1CCCCC1 > 76.9 µM
COCCN1C(=O)c2ccccc2C(C(=O)NCCN(C)C)C1c1ccc(F)cc1 (centres undefined) > 76.9 µM
CCCCC(=O)N1CC2(C)CN(C(=O)CCCC)CC(C)(C1)C2=O > 76.9 µM
COc1ccc(-c2nc(C#N)c(N3CCCCCC3)o2)cc1OC > 76.9 µM
COc1cccc(-n2c(SC3CCOC3=O)nc3ccccc3c2=O)c1 (centres undefined) > 76.9 µM
Cc1ccc2c(c1)nnn2C1CCN(C(=O)C2CCCCC2)CC1 > 76.9 µM
Cn1c(SCC(=O)NCc2cccs2)nnc1-c1cccs1 > 76.9 µM
COc1nnc(-c2ccc(C(=O)N3C[C@@H]4C[C@H](C3)c3cccc(=O)n3C4)cc2)c2ccccc12 > 76.9 µM
O=C(NCCCN1CCCCCC1)c1ccc2c(c1)NC(=O)C(N1CCOCC1)S2 (centres undefined) > 76.9 µM
O=C(NCC(c1ccc(F)cc1)N1CCOCC1)c1ccc(Br)o1 (centres undefined) > 76.9 µM
COc1ccc(C2C(C(C)=O)=C(C)Nc3ncnn32)cc1OC (centres undefined) > 76.9 µM
CN(C(=O)CSc1nc(-c2ccc(F)cc2)cs1)C1CCS(=O)(=O)C1 (centres undefined) > 76.9 µM
CC(C)CC(OC(=O)c1ccco1)C(=O)NC1CCCCC1 (centres undefined) > 76.9 µM
CCOC(=O)c1[nH]c(C)c(C(=O)NCc2ccc(Cl)cc2)c1C > 76.9 µM
CC(=C1C(=O)c2ccccc2C1=O)N1CCN(c2ccccn2)CC1 > 76.9 µM
Cc1sc(NC(=O)CSc2nnc(COc3ccccc3)n2C)c(C#N)c1C > 76.9 µM
